# Screen size: about 310,000 compounds; about 2,200 (0.71%) showed an effect of 50% or more. Effects have a minus sign here. This is one part of the list.
# Target: human ether-à-go-go-related gene (hERG) potassium channel (human, UniProt Q12809)
# Assay: primary screen, population patch clamp on CHO cells stably expressing hERG
# human ether-à-go-go-related gene (hERG) potassium channel, sequence (Q12809 whole entry, looked up): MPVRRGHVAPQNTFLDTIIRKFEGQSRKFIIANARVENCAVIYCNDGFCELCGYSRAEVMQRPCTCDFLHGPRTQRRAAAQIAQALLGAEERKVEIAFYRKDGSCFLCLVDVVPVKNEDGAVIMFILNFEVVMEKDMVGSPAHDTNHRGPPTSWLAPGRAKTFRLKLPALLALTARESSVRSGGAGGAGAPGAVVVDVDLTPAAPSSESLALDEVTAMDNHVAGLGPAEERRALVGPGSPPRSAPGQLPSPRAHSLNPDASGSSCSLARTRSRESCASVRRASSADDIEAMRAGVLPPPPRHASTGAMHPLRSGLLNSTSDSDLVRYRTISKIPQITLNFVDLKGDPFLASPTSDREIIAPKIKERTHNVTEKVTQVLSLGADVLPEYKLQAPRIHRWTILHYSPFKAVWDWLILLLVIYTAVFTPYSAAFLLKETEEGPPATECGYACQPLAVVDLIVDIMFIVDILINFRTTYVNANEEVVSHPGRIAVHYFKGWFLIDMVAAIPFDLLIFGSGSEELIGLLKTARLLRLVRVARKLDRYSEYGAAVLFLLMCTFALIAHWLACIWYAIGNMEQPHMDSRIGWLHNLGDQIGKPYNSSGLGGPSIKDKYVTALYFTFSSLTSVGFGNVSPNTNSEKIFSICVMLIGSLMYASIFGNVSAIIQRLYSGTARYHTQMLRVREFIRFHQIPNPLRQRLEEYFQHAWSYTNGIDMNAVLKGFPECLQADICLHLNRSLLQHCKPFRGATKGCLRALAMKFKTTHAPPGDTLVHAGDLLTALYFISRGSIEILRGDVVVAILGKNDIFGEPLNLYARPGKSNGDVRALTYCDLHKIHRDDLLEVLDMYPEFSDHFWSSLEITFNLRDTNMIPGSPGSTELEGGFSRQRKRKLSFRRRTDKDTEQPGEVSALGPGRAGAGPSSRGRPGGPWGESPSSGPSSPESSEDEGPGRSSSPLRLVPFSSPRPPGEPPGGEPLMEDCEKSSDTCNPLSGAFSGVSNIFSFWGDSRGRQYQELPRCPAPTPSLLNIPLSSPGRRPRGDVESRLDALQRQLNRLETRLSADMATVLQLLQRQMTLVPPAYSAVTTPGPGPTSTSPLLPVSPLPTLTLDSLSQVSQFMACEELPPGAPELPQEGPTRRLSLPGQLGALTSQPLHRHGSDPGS
row,SMILES,"hERG current change (%, negative = inhibition) at 1uM [%]"
1,COc1ccc(C(=O)C2CCCN(C(=O)c3n[nH]c4c3CCCC4)C2)cc1OC (stereo not drawn),19.2
2,Cc1cc(C)c(N(C(=O)c2csnn2)C(C(=O)NC2CCCC2)c2ccncc2)c(C)c1 (stereo not drawn),10.4
3,COc1ccc(CCC(=O)Nc2cc([N+](=O)[O-])ccc2OC)cc1,8.26
4,CN1CCN(CC(=O)Nc2cc(S(=O)(=O)N3CCOCC3)ccc2Cl)CC1,15.2
5,Cc1cc(C)cc(Oc2ccc(NC(=O)C3CC=CCC3C(=O)O)cc2)c1 (stereo not drawn),18.2
6,CC(=O)c1cccc(NC(=O)c2cnn3ccccc23)c1,6.99
7,Cc1cc(C)c2c(-n3cccc3)n[nH]c2n1,12.1
8,C#CC[N+]1(C)C2CCC1CC(O)C2.[Br-] (stereo not drawn),9.88
9,Cc1ccc(C)c(N2CCN(C(=O)c3ccc(Cn4c(=O)[nH]c5ccccc5c4=O)cc3)CC2)c1,11.6
10,CN(C)S(=O)(=O)c1cccc(NC(=O)COc2ccc(C(=O)c3ccccc3)cc2)c1,-6.39
11,COc1ncccc1C(=O)NCC(CC(=O)O)c1ccccc1 (stereo not drawn),10.5
12,CC1CC(C)CN(C(=O)Cc2c(C(=O)O)[nH]c3ccc(Cl)cc23)C1 (stereo not drawn),0.92
13,CCCCNC(=O)C1CCC(CNS(=O)(=O)c2c(C)cc(C)cc2C)CC1 (stereo not drawn),-13.4
14,CC1(c2ccccc2Cl)NC(=O)N(CC(=O)NC(=O)NCc2ccco2)C1=O (stereo not drawn),8.12
15,Cc1sc(-n2cccc2)c(C(=O)O)c1C,15
16,CCCN(Cc1nnc(-c2ccccc2Cl)o1)C(=O)c1cccc(S(=O)(=O)N2CCOCC2)c1,7.59
17,Cc1ccc(-c2nn(-c3ccccc3)cc2/C=C2\SC(=S)N(CC(=O)O)C2=O)cc1,0.664
18,CCCCN(CC)C(=O)C1CCCN(S(=O)(=O)c2cccc3nsnc23)C1 (stereo not drawn),13.4
19,CC(C)CCOc1cccc(OCC(=O)Nc2ccncc2)c1,19.1
20,CCOP(=O)(OCC)C(NC(=O)c1ccc(OC)c(OC)c1)c1ccccc1 (stereo not drawn),12.2
21,CCCC(=O)Nc1ccccc1NC(=O)c1ccc(OCC)c(OCC)c1,10.7
22,CCOC(=O)C1=C(CC)Nc2ccccc2N=C1NC(=O)c1oc2ccccc2c1C,13.3

row,SMILES,"hERG current change (%, negative = inhibition) at 1uM [%]"
1,CCCOc1ccc(/C=C/C(=O)Nc2ccc([N+](=O)[O-])cc2C)cc1,7.64
2,CCOC(=O)c1nnn2c1nc(N(CC)CC)c1ccccc12,6.76
3,CCOC(CCn1c(SCc2cccc([N+](=O)[O-])c2)nc2ccccc2c1=O)OCC,-1.04
4,Nc1ccccc1Nc1c(F)c(F)nc(F)c1Cl,17.2
5,O=C(CSc1ccc(-c2ccc(Cl)cc2)nn1)Nc1ccc2c(c1)OCCO2,16.7
6,Cc1ccc(C(=O)NNC(=O)CSc2nnc3c(n2)[nH]c2ccc(C)cc23)cc1,6.24
7,CC(=O)NC(=O)c1cnn(-c2ccccc2)c1N,10.1
8,O=C(c1cccc(S(=O)(=O)N2CCOCC2)c1)N1CCN(c2ccc(F)cc2)CC1,-3.96
9,C/C(N)=C(\C#N)C(=O)NCc1ccccn1,10.9
10,Cc1ccc(/C=C2\SC(=S)N(C(Cc3ccccc3)C(=O)O)C2=O)cc1 (stereo not drawn),12.3
11,CCCOC(=O)C1=C(C)N(C)C(=O)NC1c1cc2c(cc1[N+](=O)[O-])OCO2 (stereo not drawn),15.6
12,Cc1ccc(NC(=O)c2ccc(Cl)c(NC(=O)c3cccs3)c2)cc1,5.42
13,C[C@@H]1NC(=O)[C@H](CCC(N)=O)NC(=O)c2cc([N+](=O)[O-])cc(I)c2NCCC[C@@H](C(N)=O)NC1=O,-10
14,c1ccc2c(c1)nnn2-c1ncnc2sccc12,4.42
15,COC(=O)C1=C(C)N(CCCC(=O)O)C(=O)NC1c1ccccc1OS(=O)(=O)c1ccc([N+](=O)[O-])cc1 (stereo not drawn),13.6
16,COc1ccc(C2C(C(=O)O)c3ccccc3C(=O)N2Cc2ccco2)cc1 (stereo not drawn),11.5
17,CCCCNc1nc2c(c(=O)[nH]c(=O)n2C)n1CCOc1ccccc1,5.77
18,O=C(NCc1ccccc1)C(c1ccncc1)N(C(=O)c1ccccn1)c1ccccc1 (stereo not drawn),14.8
19,COc1ccc2ccc(O)c(CN3CC=C(c4ccccc4)CC3)c2c1,22.2
20,Br.Cc1ccc(C)c(C2=CSC3=NCCN23)c1,-1.3
21,Cc1nn(C)cc1C1C2=C(CC(C)(C)CC2=O)OC2=C1C(=O)CC(C)(C)C2,-9.73
22,OCC[C@H]1C[C@H](O)[C@@H](O)[C@]2(Cc3ccccc3O2)O1,-16

row,SMILES,"hERG current change (%, negative = inhibition) at 1uM [%]"
1,CSCCC1(C(=O)O)NC(c2ccccc2O)C2C(=O)N(C(C)C)C(=O)C21 (stereo not drawn),20.3
2,Cc1ccc(-c2nc(N/N=C/c3ccccc3[N+](=O)[O-])c3ccccc3n2)cc1,3.57
3,COc1ccc(C(=O)NN2C(=O)C3C(c4ccccc4)C=CC(c4ccccc4)C3C2=O)cc1 (stereo not drawn),5.2
4,Cc1cccc(Cn2cc(C=O)c3ccccc32)c1,13.3
5,CC(=O)Nc1ccc(S(=O)(=O)Nc2nc3ccccc3nc2Cl)cc1,4.91
6,COc1ccccc1-n1cnnc1SCC(=O)Nc1cc(C(C)(C)C)nn1-c1ccccc1,3.78
7,O=C(/C=C/c1ccc(F)cc1)N1CCN(Cc2ccccc2)CC1,-1.21
8,CCCNS(=O)(=O)c1ccc(OCC(=O)NCc2ccco2)cc1,-22.4
9,COc1ccc(C(c2nnnn2CS(=O)(=O)c2ccc(C)cc2)N2CCN(c3ncccn3)CC2)cc1 (stereo not drawn),0.618
10,Cc1cc(=O)cc(C)n1-c1ccc2c(c1)nc(C)n2-c1ccccc1,5.37
11,CCCc1cc(=O)oc2cc(Oc3ncccn3)ccc12,-5.6
12,COc1ccc(S(=O)(=O)NCc2ccc(C(=O)N3CCc4ccccc4C3)cc2)cc1,7.79
13,C=CCNc1nc(Cl)nc(Nc2ccc(OCC)cc2)n1,8.51
14,NC(=O)c1ccccc1NC(=O)/C=C/C(=O)O,13.2
15,O=C(c1ccoc1)N1CCC(CO)(CCc2ccccc2)CC1,-0.129
16,Cc1noc(/C=C/c2cccs2)c1S(=O)(=O)N1CCC(C(=O)NCCCN2CCC(C)CC2)CC1,-29.1
17,O=C(C[n+]1cc(-c2ccc(Cl)c(Cl)c2)n2c1CCC2)c1cccs1.[Br-],10.1
18,COCCCn1c(SCC(=O)NC2CCCC2)nnc1-c1cccs1,7.22
19,COC(=O)CNC(=O)CN1c2cccc3cccc(c23)S1(=O)=O,-12.4
20,CC(C)Oc1ccc(OCCSc2nc3ccccc3n2CC(=O)O)cc1,9.65
21,CC(C)c1ccc(NC(=O)CN2C(=O)COc3ccc(S(=O)(=O)N4CCOCC4)cc32)cc1,12.5
22,Cc1c(CCC(=O)NCCC(=O)O)c(=O)oc2c(C)c3oc4c(c3cc12)CCCC4,4.2

row,SMILES,"hERG current change (%, negative = inhibition) at 1uM [%]"
1,COc1ccc2c(c1)cc(C(=O)N[C@@H](CCSC)C(=O)N1CCC(C(=O)O)CC1)n2C,16.5
2,Cc1[nH]nc(SCC(=O)NCCc2ccccc2)c1[N+](=O)[O-],18
3,Cc1ccccc1Oc1nc2ccccc2n2cnnc12,11.7
4,O=C(NCc1ccco1)NC(=O)c1csc([N+](=O)[O-])c1,13.9
5,O=C(NNc1ccnc2cc(Cl)ccc12)C1CCCCC1,2.18
6,COc1ccc(CNc2nc3ccccc3n2C)c(O)c1,11.5
7,Oc1ccc(C=NCC2COc3ccccc3O2)cc1 (stereo not drawn),-15.8
8,O=[N+]([O-])c1ccc(NC(=S)N2CCN(c3ccccc3)CC2)cc1,6.02
9,Cc1ccc(F)cc1NC(=O)CN1CCN(Cc2ccccc2)CC1,-16.8
10,CC(C)CC(=O)Nc1ccnn1C1CCN(C(=O)c2ccc(F)cc2Cl)CC1,7.28
11,CC1CCN(S(=O)(=O)c2ccc(Br)s2)CC1,14.4
12,C=CCSc1ccccc1C(=O)Nc1ncn[nH]1,15.3
13,Cc1ccc(O)c(CNCCNCc2cc(C)ccc2O)c1,15.3
14,CCC(=NCC1CCCO1)c1c(O)n(-c2ccc(OC)cc2)c(=O)[nH]c1=O (stereo not drawn),14
15,CC(C)c1ccc(NC(=O)C2C3C=CC4(O3)C2C(=O)N(CCCN2CCOCC2)C4C(=O)NC2CCCCC2)cc1 (stereo not drawn),18
16,O=C(CSc1nnc(CCCN2C(=O)c3cccc4cccc(c34)C2=O)n1-c1ccccc1)N1CCN(CCO)CC1,-4.42
17,CCN(CC(=O)Nc1cccc(OC)c1)C(=O)c1ccco1,17.8
18,N#C/C(=C\c1ccncc1)C(N)=O,9.13
19,Fc1ccc(/C=N/n2c(COc3ccccc3)n[nH]c2=S)cc1,17.3
20,COCCCn1cnnc1SCc1nc2sc(C(C)=O)c(C)c2c(=O)[nH]1,-2.55
21,CCc1nnc(NC(=O)C2CC(=O)N(C3CCCCC3)C2)s1 (stereo not drawn),13.4

# — publication PMC4336329 (PLoS ONE, 2015)
